According to paper PMC12136788:
The list shows a part of the results.

T1: UNK ZnF1-3 (human, UniProt Q9C0B0 31-174)
T1 sequence: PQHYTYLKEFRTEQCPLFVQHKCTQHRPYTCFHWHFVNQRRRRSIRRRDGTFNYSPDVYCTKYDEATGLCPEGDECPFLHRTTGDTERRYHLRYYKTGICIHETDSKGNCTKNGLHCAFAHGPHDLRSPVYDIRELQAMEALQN

B1: chr8:104447970:104447971:+_ENSG00000164934_ENST00000297579|hu_hu|hu_hu_hu_mus_False|88_108 (ssRNA)
RNA: GGGAGUUCUACAGUCCGACGAUCAUAUACCUCCCUGCUUCGGCUCUUGUCUACAGGAAAGAUUCUAAUAGACUUAUCAAAGCUGGCAGACACAAAUUCCUUCCCAGUGGGAGAGUAGUCCACAUCAAGUACUGCAGACACGUGCAACAGAGGAUUGAGCAUCA
B2: chr16:45382771:45382772:-_ENSMUSG00000022661_ENSMUST00000163230|mus_mus|mus_mus_mus_hu_True|1_8 (ssRNA)
RNA: GGGAGUUCUACAGUCCGACGAUCCUGGGUCAUGUUAUAAGACAAAUGGACAGGGAGGGCAUGCUUCUCAAAAAAUGUGAGCUAUUGUCUAAGACUAACAAUAUUUAUCUAGCUAUAAAAAUAAGUUUUAAAUGGACACAUUACCAACAGAGGAUUGAGCAUCA
B3: 21540635_21540755_4770_CDS_ENSMUSG00000021819_ENSMUST00000022358|mouse|control|control (ssRNA)
RNA: GGGAGUUCUACAGUCCGACGAUCGUAGGGGUGCAGGCCAGGGGAGUGGCCAUGCCCCAGUCCUGGACCUGGAUAUAAACUGGACCCCACUGAGAUGACCGGAACCACUGUGGCUGCUGCUGUCACUGCUGCCGCAGCCACUGUCAACAGAGGAUUGAGCAUCA
B4: chr14:22612544:22612545:+_ENSMUSG00000021770_ENSMUST00000119430|mus_hu|FALSE|FALSE (ssRNA)
RNA: GGGAGUUCUACAGUCCGACGAUCAAGCCAGGCAUCUAAGAACAACCUAGGGGGAGAACGCAAAGUUACUCAUUUUCAACAACUAUUAUAUAUUUAAUCACAAAUUCAUUAGAAAGAUAGUAUUCAUCCAAUUAGUCUUUUCAUCAACAGAGGAUUGAGCAUCA
B5: chr6:72385097:72385098:-_ENSMUSG00000053907_ENSMUST00000059472|mus_mus|FALSE|FALSE (ssRNA)
RNA: GGGAGUUCUACAGUCCGACGAUCCUGAGAAGUGCCAUAAUGGAAAAUGGAGAUCGACAAUGGAUGAGAAACUCCAAUAGCAUAAGAGACCUGAACAAGAACCCUCCUGCACAGACCUCCUUUAACAAGGGAUUUUGCCACCCACAACAGAGGAUUGAGCAUCA
B6: chr18:61067831:61067832:-_ENSG00000119541_ENST00000238497|hu_hu|FALSE|FALSE (ssRNA)
RNA: GGGAGUUCUACAGUCCGACGAUCAGAAACAAGAUCAGAGGAAGAUAUUGAAAAAAAUGUUGAGUUGUUGGCUUCUGUUGCUACAGCUUUGGCUAAGUAGGACUUUCCUGUUCCAGGCGGCCCAAAUAAUAGGAUUCCCCUCCACAACAGAGGAUUGAGCAUCA
B7: chr14:20710596:20710597:-_ENSMUSG00000043004_ENSMUST00000160013|mus_mus|motif|central (ssRNA)
RNA: GGGAGUUCUACAGUCCGACGAUCAUCCUGUCGAUGUUGGCUUCCAUCUUCAGCUGUUCUACCAGCUUCCUGGCUUGUGCGGUGCUGGCGGUGUUGUUGCUGGCCAUUGGAGCGUUGGAUGGGGUCUUCAGAGACUCUGGUCAGCAACAGAGGAUUGAGCAUCA
B8: chr4:106721038:106721039:+_ENSMUSG00000061887_ENSMUST00000030367|mus_hu|FALSE|FALSE (ssRNA)
RNA: GGGAGUUCUACAGUCCGACGAUCUCCUUUUUUUUUUUUUUUAAGAAGAAAGCAUAGAGGUUGAUUGGGGUGGGGGGCUUGCUAGAAGCUUCCAUUUAAAAAAAUUUUCCCCCAAAAAACCCCCCUGAAAACAAAUAAAAAAAUCAACAGAGGAUUGAGCAUCA
B9: chr11:47008823:47008824:+_ENSG00000149179_ENST00000278460|hu_mus|motif|central (ssRNA)
RNA: GGGAGUUCUACAGUCCGACGAUCUCCUUGGCAUACGCUGUUAAAAUAGUCAGUGAAGAACCGGGCAAUGCCAUACUGGCGGAUAUCCUCCCUGUUCUCCAGCAGCUGGCACACUGCAUCCUCCAUGUACGUGAGGACAUGUCUCAACAGAGGAUUGAGCAUCA
B10: chr10:33190432:33190433:-_ENSG00000150093_ENST00000302278|hu_mus|hu_hu_hu_mus_True|8_98 (ssRNA)
RNA: GGGAGUUCUACAGUCCGACGAUCUACAUUUUCCAAACCUGCACAUGAAUAAAACCCUGGCCACAGAGCCCCAAAACUACCCUACUGUGACUAAGAUGCUGCUGCUGUGAGCUUGGUGUUGCAAAAUUUUGCACGGGAGGAUUCCAACAGAGGAUUGAGCAUCA
B11: chr1:39494447:39494448:+_ENSG00000168653_ENST00000372967|hu_mus|hu_hu_hu_mus_False|1_58 (ssRNA)
RNA: GGGAGUUCUACAGUCCGACGAUCGCACCGAGCGGCGUUCUUAUAGGGCUGUUCUGCGCUUAGGAACAUAAAGUGCCGAUCUAUGUUGAUGCCCAGCUUUUUCUGUAUGUCAAGGAAAGGCAUGGCUCUGCAGUGCCCCCUUGACAACAGAGGAUUGAGCAUCA
B12: chr1:109605286:109605287:-_ENSG00000197780_ENST00000461096|hu_mus|hu_hu_hu_mus_True|98_98 (ssRNA)
RNA: GGGAGUUCUACAGUCCGACGAUCAAGUUUCAGAGUAUUCAGUGAUCACCUCUUUAAAUGCAAUUAUCCUUAUUAUAAGCUAAGCAGAAUAAUAAUUUAAUACCGUAAGUGAACUACACACAAAGCCUGAACCGCGAAAAUGGUCAACAGAGGAUUGAGCAUCA
B13: chr13:55314840:55314841:+_ENSMUSG00000021488_ENSMUST00000099490|mus_hu|motif|central (ssRNA)
RNA: GGGAGUUCUACAGUCCGACGAUCAUCACUUUUUUCAGGGUCUUGAAAGGAUUCUGAUCCAUCAGCAGACCCAUUUAAAUACUCGGCAUUGAUCAUGGAGGCCAAAUCCUGUAGUCUCCGCAGUGGAAUGUAACAAGAUGGAGACAACAGAGGAUUGAGCAUCA
B14: chr9:71842732:71842733:+_ENSG00000119139_ENST00000377245|hu_mus|FALSE|FALSE (ssRNA)
RNA: GGGAGUUCUACAGUCCGACGAUCAUCCUGAUCAGAAUACUGCUGGCGUCUCUCCUCUGGAGAGAAAGACCGGUUGGACUCUAUUUCCGAGAUAUCCUCCACUUCAGAGUCGCUGUCGUUUAGGGCUGGGAUGUUGAUGAGGGUCAACAGAGGAUUGAGCAUCA
B15: chr12:48362563:48362564:+_ENSG00000134291_ENST00000256686|hu_hu|hu_hu_hu_mus_False|28_88 (ssRNA)
RNA: GGGAGUUCUACAGUCCGACGAUCUCCGUCAAGCCCUUCGAUAGACCCAUAGACUCUAAACUGUAAUCACUUUGUAUGGGGAAGGAAAAGAAACGCCAAAAACUUUCUUUCUUUCUUGGGUGGGGUGAGGCGGGAGGGGGAGGUCAACAGAGGAUUGAGCAUCA
B16: chr3:123074269:123074270:-_ENSMUSG00000028114_ENSMUST00000029759|perfect_dup|FALSE|FALSE (ssRNA)
RNA: GGGAGUUCUACAGUCCGACGAUCGCGUCUUCUACCAAGACAAAAAUGCUCAAUUAUAUGAAAAAUUUCUACAGGUUUUUCUAUAUUGCCAAUUUCAGGUUCUUCUGUGAUAAUUAAGUCAAUGUCAACAUUAGCAUGAAUGAACAACAGAGGAUUGAGCAUCA
B17: chr16:94653416:94653417:+_ENSMUSG00000040785_ENSMUST00000117648|mus_mus|motif|central (ssRNA)
RNA: GGGAGUUCUACAGUCCGACGAUCCACGACGUGGAAAUCAAGCUCCUUGAGAGAUGCUCCGUACCGAGUGAAAAAGGGUCCGGUGGCAUCCAAGCCAAAACUAUUCAGUCUCUGGAUCCAGGGAGCCAACUUGGGGUCUAACUCCAACAGAGGAUUGAGCAUCA
B18: chr1:95363323:95363324:-_ENSG00000117519_ENST00000538964|hu_mus|FALSE|FALSE (ssRNA)
RNA: GGGAGUUCUACAGUCCGACGAUCGGACUAAAUACUGCGCUCCUGUGUGUGACUCUAAUAAUCAAUGCCCUGGUCGUCGCCAUACUGGUACUCCCGAGGGUAGUCGUCUGGGUACUCGCCAUGAUAUUCAUCGGGGUAUUCUGCCAACAGAGGAUUGAGCAUCA
B19: chr8:74858975:74858976:-_ENSG00000154582_ENST00000284811|hu_mus|motif|central (ssRNA)
RNA: GGGAGUUCUACAGUCCGACGAUCGACCUUGUAGGUAAAAUACAUGCACACUUUUGAUAGCACAUGUGAGGGGAUCUCUCGGAAAUUGACCUCGUUGGUUUCAUUCUCAGCAAACUGACCUGGACCACUCAACAUAGCCUUUAUCAACAGAGGAUUGAGCAUCA
B20: chr1:163112212:163112213:-_ENSG00000143248_ENST00000313961|hu_hu|hu_hu_hu_mus_False|1_108 (ssRNA)
RNA: GGGAGUUCUACAGUCCGACGAUCUUUAUUUAUCCAGAAGAGUGAGUUACAUACUAGGCAAAGUAUUGGAUACAAUAAUCAGGAAACAAACACUAUUGGUCCAGAAUUUAAAACUUUAUGAGCGAAGUGCUGGCACAGGAUUUACAACAGAGGAUUGAGCAUCA
B21: chr4:58499471:58499472:-_ENSMUSG00000038668_ENSMUST00000055018|mus_mus|motif|central (ssRNA)
RNA: GGGAGUUCUACAGUCCGACGAUCAGCGUAGAGAACCACCAUGACCACAAAGGUCACCAGGUUGAAAAUGGCCCAGAAGACGGAGUAGGAGUCACUGUAGAGGGGUGCCAUGUUGGAACAGUGAUCGAUAUCACAGAUGCAGUUCAACAGAGGAUUGAGCAUCA
B22: chr2:179515052:179515053:+_ENSMUSG00000000305_ENSMUST00000000314|mus_hu|mus_mus_mus_hu_False|88_88 (ssRNA)
RNA: GGGAGUUCUACAGUCCGACGAUCGCUGUCCCAUGCAGUCACCGUGAAGGCCACCUGCUCGGAGGGGACCUGCAGCUCCCGGGUGGCGAAGACUGUCCCAUCUGCCCCAACUUUGAAGUCCAUGCUGUUGGUCUCAUAUUGUGUCAACAGAGGAUUGAGCAUCA

Molecular target: T1, UNK ZnF1-3
Test: nsRBNS (natural sequence RNA bind-n-seq); RBNS binding buffer (assumed for nsRBNS): 25 mM Tris pH 7.5, 150 mM KCl, 3 mM MgCl2, 0.01% Triton X-100, 500 ug/ml BSA, 20 U/ml SUPERase-In, 4 C; UNK is unkempt and MSI1 is Musashi-1; names of the RNAs are library labels; protein concentration not given here; high values mean tight binding

Binder	binding signal [enrichment R]
B1	0.917
B2	2.72
B3	0.644
B4	1.99
B5	0.946
B6	2.05
B7	0.418
B8	0.973
B9	0.645
B10	1.21
B11	0.632
B12	0.773
B13	0.775
B14	0.656
B15	2.1
B16	1.05
B17	0.756
B18	0.745
B19	0.747
B20	1.56
B21	1.48
B22	0.87
